# Measured values reported in PubChem BioAssay AID1347043 (National Center for Advancing Translational Sciences (NCATS), 2019).
# The campaign covered roughly 76,000 compounds. About 1,900 (2.5%) were called active. This list was built around the results that the source calls inconclusive (neither active nor inactive); the mix of calls is not that of the screen. Calls come from the whole dose curve; as a rule, active = well fitted inhibition curve with a large enough effect; inconclusive = small, poorly fitted or top-dose-only effect; inactive = flat fitted curve, though single readings scatter. Potencies beside an inconclusive call are fits to weak or partial responses and may not hold up.
# Biological target: Luciferin 4-monooxygenase (Photinus pyralis) (UniProt P08659)
# Test: Firefly luciferase inhibition profiling of diverse chemical library using quantitative high-throughput screening; note: nearly all actives have a fitted effect of over 65% in size
# Conditions: purified P. pyralis luciferase, luminescence, biochemical; series mostly up to 115 µM
# Description: Firefly (Photinus pyralis) luciferase is one of the most commonly used transcriptional reporters for a number of reasons. It is considered one of the more dynamically responsive reporters - that is, responsive to changes in reporter transcription - as it requires no post-translational modifications and is enzymatically active directly after protein synthesis (Wood, 1998). Additionally, the half-life of the luciferase protein is short relative to other reporter-gene products (Wood, 1995). Whereas reporters with long half-lives potentially allow for increased signal due to accumulation of reporter-gene product, once accumulated in the cell, dynamic changes in reporter-gene expression may be difficult to detect(Fan and Wood, 2007; Almond et al., 2004). It has been shown that wild-type P. pyralis luciferase has a half-life of approximately four hours in mammalian cells (Thompson et al., 1991). Firefly luciferase reporter-gene assays are also generally considered one of the most sensitive assay types (Wood, 1995; Wood, 1998). Although light produced in a bioluminescence reaction is of lower intensity than that produced during fluorescence emission, this is offset by little to no background light inherent to luminescent assays. Thus the luciferase reporter can be expressed at much lower levels than fluorescent proteins while still providing robust signal. However, it was initially observed, in 1991, by Thompson et al., that compounds that resemble the substrates of firefly luciferase (FLuc) can act as competitive inhibitors of the enzyme, and that these compounds, upon interaction with luciferase in the cell, can actually stabilize the protein and increase its half-life. Accumulated intracellular FLuc protein can be measured as an increase in luminescence signal, upon addition of detection reagents (which contain high concentrations of FLuc substrates) commonly used in high-throughput screening. In cell-based reporter gene assays that use FLuc as the reporter gene to quantitate the potential influence of a given compound against the target biology, this apparent increase in luminescence can mistakenly be interpreted as identification of a compound that is active against the target of interest. FLuc inhibitory compounds that stabilize the FLuc protein will give an identical read-out, making it difficult to distinguish compounds that are active against the target from those active against FLuc. In summary, the results generated here constitutes a valuable resource for the scientific community and provides insight on identifying compounds with inhibitory activity for the commonly-used reporter, firefly luciferase. References: -Almond, B., Zdanovsky, A., Zdanovskaia, M., Ma, D., Stecha, P., Paguio, A., Garvin, D., and Wood, K. (2004). Introducing the Rapid Response Reporter Vectors. Promega Notes 87, 18-22. -Fan, F., and Wood, K.V. (2007). Bioluminescent assays for high-throughput screening. Assay Drug Dev Technol 5, 127-136. -Thompson, J.F., Hayes, L.S., and Lloyd, D.B. (1991). Modulation of firefly luciferase stability and impact on studies of gene regulation. Gene 103, 171-177. -Wood, K.V. (1998). The chemistry of bioluminescent reporter assays. Promega Notes 65, 14-20. -Wood, K.V. (1995). Marker proteins for gene expression. Curr Opin Biotechnol 6, 50-58.
# Reagents: 50mM Tris acetate, pH 7.5; 10mM Mg acetate; 10uM D-luciferin (Sigma #L9504); 10uM ATP; 0.01% Tween-20; 0.05% BSA; 10nM P. pyralis luciferase (Sigma #L9506) Control compounds used were two known firefly luciferase inhibitors (compounds (2) and (5) in Auld et al., 2010), and DMSO. Assay Summary: Three microliters containing firefly luciferase substrates in buffer (final concentrations: 50mM Tris acetate, pH 7.5, 10mM Mg acetate, 0.01% Tween-20, 0.05% BSA, 10uM D-luciferin, and 10uM ATP) are dispensed into each well of a Greiner white, solid-bottom 1536-well format plate using a flying reagent dispenser (FRD). […]
# Tags give direction and shape of the fitted curve.
# Chain of UniProt P08659 (P08659 whole entry, looked up): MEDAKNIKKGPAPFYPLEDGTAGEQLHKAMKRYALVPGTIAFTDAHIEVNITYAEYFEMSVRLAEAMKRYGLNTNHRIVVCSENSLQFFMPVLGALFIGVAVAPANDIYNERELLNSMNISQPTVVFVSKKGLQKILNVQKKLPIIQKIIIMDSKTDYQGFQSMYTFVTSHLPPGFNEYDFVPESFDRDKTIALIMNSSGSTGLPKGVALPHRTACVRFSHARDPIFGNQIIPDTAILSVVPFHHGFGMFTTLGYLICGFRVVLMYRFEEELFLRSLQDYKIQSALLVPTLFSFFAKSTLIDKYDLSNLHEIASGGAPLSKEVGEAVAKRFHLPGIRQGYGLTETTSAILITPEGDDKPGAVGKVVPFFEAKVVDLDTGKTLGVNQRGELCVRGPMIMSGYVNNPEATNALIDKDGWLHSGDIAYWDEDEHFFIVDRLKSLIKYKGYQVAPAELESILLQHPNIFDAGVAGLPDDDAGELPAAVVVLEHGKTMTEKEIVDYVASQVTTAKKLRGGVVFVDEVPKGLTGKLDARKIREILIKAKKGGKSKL
row,SMILES,Potency
1,CC(CCc1ccccc1)NC(=O)C1CCN(c2cc(C(F)(F)F)ncn2)CC1 (stereo not given),inactive
2,CN1CC2(C1)C(=O)N(Cc1cccc(Cl)c1)C(=O)[C@@H]1C[C@@H](O)CN12,inactive
3,COc1ccc(-c2nc(-c3nnn4c3COC(c3ccc(C)cc3)C4)no2)c(OC)c1 (stereo not given),inactive
4,N#Cc1ccc(CNC2(Cc3cc(COc4ccccc4)on3)COC2)cc1,inactive
5,CNC(=O)CCn1ncc2cc(OC3CCc4cccc(-c5ccnn5C)c43)ccc21 (stereo not given),inactive
6,Fc1ccc(Cc2noc(-c3nc(-c4ccccc4)no3)n2)cc1,"inconclusive: 28.2 µM [inhibitor, partial curve]"
7,Cc1nc(C)c(C(=O)N2CC(Oc3ccc(-c4noc(-c5ccccc5)n4)cc3)C2)s1,"inconclusive: 89.1 µM [inhibitor, partial curve, poor fit]"
8,O=C(c1cccc2[nH]ccc12)N1CC(Oc2ccc(-c3nc(-c4ccccc4)no3)cc2)C1,active: 15.8 µM
9,COc1ccccc1C(=O)N1CC(Oc2cccc(-c3nc(-c4ccccc4)no3)c2)C1,active: 7.94 µM
10,Cc1ccc(C2Cn3cnc(C(=O)N4CCC(C(=O)NCc5ccccc5F)CC4)c3CO2)cc1 (stereo not given),"inconclusive: 39.8 µM [inhibitor, partial curve]"
11,COc1ccc(-c2ccc3nc(-c4ccc(Cl)cc4)oc3c2)c(OC)c1OC,"inconclusive: 39.8 µM [inhibitor, partial curve]"
12,Cc1noc(-c2nc(-c3ccccc3C)no2)n1,"inconclusive: 39.8 µM [inhibitor, partial curve]"
13,COCCNc1ncc(-c2cccc(F)c2)c2c1OCC2,active: 79.4 µM
14,CC1(C)C[C@H](NC(=O)c2cccnc2)[C@@]2(CCC(=O)NCCN3CCOCC3)CC[C@](C)(O)C[C@@H]12,inactive
15,COc1cccc(-c2noc(Nc3ccc(OC)c(OC)c3)n2)c1,active: 2 µM
16,O=C(NCc1ccccn1)c1ccc(-c2ccc(N3CCCCC3)nc2)cc1,"inconclusive: 39.8 µM [inhibitor, partial curve]"
17,COc1ccc(NC(=O)c2ccc3c(c2)N(S(C)(=O)=O)CC3)cc1OC,"inconclusive: 44.7 µM [inhibitor, partial curve]"
18,CCc1noc(-c2cn(C3CCN(C(=O)c4ccc(N(C)C)cc4)CC3)nn2)n1,inactive
19,Cc1cnc(CC2CCN(C(=O)c3cccc4[nH]ccc34)CC2)n1CC1CC1,"inconclusive: 50.1 µM [inhibitor, partial curve]"
20,COc1ccc(C(=O)Nc2ccc(-c3noc([C@@H]4CCCN4Cc4ccncc4)n3)cn2)cc1,"inconclusive: 44.7 µM [inhibitor, partial curve]"
